From the supplement of paper PMC4166925
± gives the standard deviation of the averaged measurements. Whole data set: some 33,000 sequences, median “E-score (dimensionless, -0.5 to 0.5)” near -0.049, cut for the highest 2% near 0.37. This is one part of the list.

The sequences below were run on T1, PmTbr T-box DNA-binding domain (GST fusion) (assay: PBM E-score of 8-mer (E-score (dimensionless, -0.5 to 0.5)); Tbr is Tbrain of the sea star Patiria miniata (Pm) or the sea urchin Strongylocentrotus purpuratus (Sp); higher = stronger binding preference; most listed sequences are background and not binding sites). Settings: the construct has about 5 more residues each side.
T1 sequence: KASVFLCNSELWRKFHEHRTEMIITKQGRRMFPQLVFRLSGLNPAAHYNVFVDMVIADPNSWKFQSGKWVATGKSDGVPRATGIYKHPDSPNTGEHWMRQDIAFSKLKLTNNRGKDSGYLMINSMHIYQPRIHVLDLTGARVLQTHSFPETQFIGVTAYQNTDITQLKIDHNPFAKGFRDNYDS
How it was run: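 Using the Universal PBM Analysis Suite, every ungapped 8-mer received an enrichment E-score averaged over duplicate arrays. Probe intensities came from double-stranded Universal Agilent oligonucleotide arrays incubated with 200 nM GST-fused Tbr T-box DNA-binding domain in PBS (pH 7.5). That protein was expressed in BL21 E. coli at 20 °C and purified by glutathione affinity chromatography.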

Row | Sequence | PBM E-score of 8-mer
1 | ATCAGGAG | -0.187 ± 0.033
2 | AGCGCCAC | 0.28 ± 0.042
3 | ACTTAACC | -0.155 ± 0.013
4 | GAGCTCCC | -0.132 ± 0.065
5 | CGGCGACC | -0.12 ± 0.053
6 | AGCTTCAC | 0.145 ± 0.072
7 | CTTATTCC | -0.215 ± 0.019
8 | TACCTGGA | 0.0222 ± 0.044
9 | ATACAGAC | -0.023 ± 0.01
10 | ATAGAGAC | -0.196 ± 0.012
11 | GTAGATCA | -0.376 ± 0.0041
12 | GAGATAAC | 0.0303 ± 0.14
13 | CGAGTAGC | 0.0859 ± 0.012
14 | GTAAGTAA | 0.0742 ± 0.0078
15 | AAGCACGT | 0.0888 ± 0.0074
16 | CGGTCATA | 0.0237 ± 0.0059
17 | GCTACTAC | -0.0308 ± 0.027
18 | ATTTGGAC | -0.118 ± 0.068
19 | TAGCAAGA | 0.0109 ± 0.034
20 | GCAATCAA | -0.107 ± 0.0026
21 | ATTACCCC | -0.318 ± 0.01
22 | CCGCGACA | 0.278 ± 0.013

Row | Sequence | PBM E-score of 8-mer
23 | CTAAATAA | -0.0265 ± 0.026
24 | TACAATGA | -0.215 ± 0.11
25 | GGTGAGGA | 0.364 ± 0.018
26 | AATCGCCC | -0.114 ± 0.085
27 | AGGATCAT | -0.151 ± 0.0099
28 | GCGGGGTA | -0.022 ± 0.01
29 | AGCCCGGG | -0.238 ± 0.038
30 | GTCCTGAA | -0.251 ± 0.018
31 | AATCCAGA | -0.143 ± 0.064
32 | ATGCGGCG | -0.0929 ± 0.028
33 | CAGAAGAA | -0.246 ± 0.066
34 | AACTCGTG | 0.21 ± 0.0026
35 | AAACTGTT | 0.142 ± 0.095
36 | CTGGACAC | -0.0407 ± 0.0061
37 | AACATTCT | -0.0551 ± 0.017
38 | AGCAACTG | 0.118 ± 0.023
39 | TCGGACGA | -0.154 ± 0.058
40 | ACTAAAAT | 0.0252 ± 0.06
41 | CTATTCCA | 0.057 ± 0.068
42 | ATAGGGAA | -0.245 ± 0.013
43 | GGCACTCA | 0.127 ± 0.027
44 | ATGGCTCG | -0.0542 ± 0.052

Row | Sequence | PBM E-score of 8-mer
45 | CAGCATGC | -0.237 ± 0.043
46 | CTCACTCA | 0.0988 ± 0.04
47 | TGCGCGCA | 0.116 ± 0.067
48 | ATCCTTCC | -0.185 ± 0.066
49 | CGACAAGA | 0.22 ± 0.0029
50 | CACCGCTG | 0.195 ± 0.031
51 | AGAACTAC | -0.0795 ± 0.065
52 | GAAGCCAA | -0.175 ± 0.01
53 | ATTAATGC | -0.296 ± 0.063
54 | CGCAAAGA | 0.0523 ± 0.0075
55 | ATGGATCG | -0.226 ± 0.089
56 | GCTGCTCA | -0.108 ± 0.022
57 | CACAAGAG | 0.0986 ± 0.032
58 | GAATGCAC | -0.0779 ± 0.019
59 | ACCCGCTC | -0.177 ± 0.05
60 | TAAGATTA | -0.201 ± 0.01
61 | CTCGACGC | 0.19 ± 0.017
62 | CCATCTAC | -0.213 ± 0.087
63 | CCAGATGG | -0.00501 ± 0.054
64 | CGGAAATC | -0.0993 ± 0.026
65 | CTGTACAC | -0.0018 ± 0.025
66 | ACGTTCAC | 0.227 ± 0.06

Row | Sequence | PBM E-score of 8-mer
67 | ACTATAGC | 0.115 ± 0.0036
68 | ACCACCGC | -0.0918 ± 0.0033
69 | CAATTACA | 0.01 ± 0.052
70 | CATAGAGA | -0.151 ± 0.0058
71 | CCGGACAG | -0.187 ± 0.068
72 | CCCGCCTC | 0.164 ± 0.031
73 | CCCGGAAG | -0.091 ± 0.041
74 | AATGGCAA | 0.116 ± 0.0097
75 | AGACGCTA | 0.0542 ± 0.021
76 | ATATTAGC | 0.08588 ± 0.00027
77 | ATAGCGGC | 0.0791 ± 0.018
78 | GGTAGGAC | -0.0864 ± 0.056
79 | AGGTCACG | 0.19 ± 0.0059
80 | CCTAGCAC | 0.3709 ± 0.0033
81 | AATGACAC | 0.355 ± 0.0044
82 | GCGATCAC | 0.293 ± 0.0094
83 | AAAAATAT | -0.0496 ± 0.078
84 | GGCTCAAA | -0.162 ± 0.12
85 | CCAACCTC | -0.00881 ± 0.014
86 | ACTCGCCC | -0.192 ± 0.097
